The source of these data is the supplement of paper PMC7125110.

The labels stand for the following.
B1: glmS ribozyme (parent)
chain: AUAAAAGCGCCAGAACUACAGAAAUGUAGUUGACGAGGAGGAGGUUUAUCGAAUUUUCGGCGGAUGCCUCCAAA

This sample is rich in variants without activity.

Holding throughout (conditions): with glucosamine-6-phosphate
Variants of B1 are the subject of data set [1]. In words: self-cleavage kobs at 640 uM GlcN6P; higher = faster cleavage; RNA array. The gist of the method:
(§1)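 Glucosamine-6-phosphate, from 40 μM to 10 mM in HEPES/KCl/Mg(OAc)2 buffer, was flowed over sequenced MiSeq chips carrying barcoded ribozyme variants transcribed in situ by E. coli RNA polymerase. A hybridised Cy3 probe tracked the variants at 37 °C as tiles were imaged over ~14 h. kobs, kcat and KM were obtained by fitting normalised per-tile medians to exponential decays and then applying weighted Michaelis–Menten fits across concentrations.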

Variants of B1 are the subject of data set [2]. Put plainly: self-cleavage kobs at 160 uM GlcN6P; higher = faster cleavage; RNA array. The method in brief: as §1
Data set [3] covers variants of B1. In words: self-cleavage kobs at 2500 uM GlcN6P; higher = faster cleavage; RNA array. The gist of the method:
as §1

Data set [4] covers variants of B1. Put plainly: self-cleavage kobs at 10000 uM GlcN6P; higher = faster cleavage; RNA array. The method in brief: as §1

As for AUAAAAGCGCCAGAACUACAGAAAUGUAGUUGAUGAGGAGGAGGUUUAUCGUAUUUUCGGCGGAUGCCUCCAAA, in data set [1], the “self-cleavage kobs at 640 uM GlcN6P” value was less than 1e-05 s⁻¹. Moreover, the “self-cleavage kobs at 160 uM GlcN6P” value in data set [2] is less than 1e-05 s⁻¹. For the same variant, in data set [3], the “self-cleavage kobs at 2500 uM GlcN6P” value is less than 1e-05 s⁻¹. For the same variant, in data set [4], the “self-cleavage kobs at 10000 uM GlcN6P” value is less than 1e-05 s⁻¹.

In the case of AUAAAAGCGCCAGAACUACAGAAAUGUAGUUGAGGAGGAUAAGGUUUAUCGAAUUUUUGGCGGAUGCCUCCAAA, the “self-cleavage kobs at 640 uM GlcN6P” value in data set [1] is less than 1e-05 s⁻¹. Further, the “self-cleavage kobs at 160 uM GlcN6P” value in data set [2] is less than 1e-05 s⁻¹.

Take AUAAAAGCGCCAGAACUACAGAAAUGUAGUUGAUGAGGAGGAGGUUUAUCGAAUUCUCGGCGGAUGCCUCCAAA: the “self-cleavage kobs at 640 uM GlcN6P” value in data set [1] is less than 1e-05 s⁻¹. In addition, the “self-cleavage kobs at 160 uM GlcN6P” value in data set [2] was less than 1e-05 s⁻¹. The “self-cleavage kobs at 2500 uM GlcN6P” value in data set [3] is less than 1e-05 s⁻¹. For the same variant, the “self-cleavage kobs at 10000 uM GlcN6P” value in data set [4] is less than 1e-05 s⁻¹.

For AUAAAAGCGCCAGAACUACAGAAAUGUAGUUGACCAGGAGGAGGUUUUUCGAAUUUUCGGCGGAUGCAUCCAAA, the “self-cleavage kobs at 640 uM GlcN6P” value in data set [1] is less than 1e-05 s⁻¹. In addition, in data set [2], the “self-cleavage kobs at 160 uM GlcN6P” value is less than 1e-05 s⁻¹. In addition, the “self-cleavage kobs at 2500 uM GlcN6P” value in data set [3] was less than 1e-05 s⁻¹.

Regarding AUAAAAGCGCCAGAACUACAGAAAUGUAGUUGGCGAGGAGGAGGUCUAUCGAAGUUUCGUCGGAUGCCUCCAAA, in data set [1], the “self-cleavage kobs at 640 uM GlcN6P” value was less than 1e-05 s⁻¹.

As for AUAAAAGCGCCAGAACUACAGAAAUGUAGUUGUCGAGGAGGAGUUUUAUUGAAGACUCGGCUGAUGCCUUCAAA, the “self-cleavage kobs at 640 uM GlcN6P” value in data set [1] is less than 1e-05 s⁻¹.

As to AUAAAAGCGCCAGAACUACAGAAAUGUAGUUGUCGAGGAGGAGGUUUAUCGAAUUUUCGGCGGACGCCUCAAAA, the “self-cleavage kobs at 640 uM GlcN6P” value in data set [1] is less than 1e-05 s⁻¹.

Regarding AUAAAAGCGCCAGAACUACAGAAAUGUAGUUGACGCGCAGGAGGUUUAUCGAAUUUUCGGCGCAUGCCUCCAAA, in data set [1], the “self-cleavage kobs at 640 uM GlcN6P” value was less than 1e-05 s⁻¹. Further, the “self-cleavage kobs at 2500 uM GlcN6P” value in data set [3] is less than 1e-05 s⁻¹.

As to AUAAAAGCGCCAGAACUACAGAAAUGUAGUUGACCAGGAGGAGGUUUAUGGAAUUUUCGUCGGAUGCCUCCAAA, the “self-cleavage kobs at 640 uM GlcN6P” value in data set [1] is less than 1e-05 s⁻¹.

Turning to AUAAAAGCGCCAGAACUACAGAAAUGUAGUUGGCGAGGAGGAGGUUCAUCGAAUUUUCGGCGGAUGCCUCCAAA, in data set [1], the “self-cleavage kobs at 640 uM GlcN6P” value is less than 1e-05 s⁻¹. Moreover, in data set [2], the “self-cleavage kobs at 160 uM GlcN6P” value was less than 1e-05 s⁻¹. The “self-cleavage kobs at 2500 uM GlcN6P” value in data set [3] is less than 1e-05 s⁻¹. Also, the “self-cleavage kobs at 10000 uM GlcN6P” value in data set [4] was less than 1e-05 s⁻¹.

For AUAAAAGCGCCAGAACUACAGAAAUGUAGUUGUCGGGGAGGAGGUUUAUAGAAUUUUCGGCGGAUGCCUCCAAA, in data set [1], the “self-cleavage kobs at 640 uM GlcN6P” value was less than 1e-05 s⁻¹. Besides, in data set [3], the “self-cleavage kobs at 2500 uM GlcN6P” value was less than 1e-05 s⁻¹.

For the variant AUAAAAGCGCCAGAACUACAGAAAUGUAGUUGACCAGGAGGAGGUUUAUCGAAUUUUCGGCGGAUGCCCCCAAA, the “self-cleavage kobs at 640 uM GlcN6P” value in data set [1] was less than 1e-05 s⁻¹. In addition, the “self-cleavage kobs at 160 uM GlcN6P” value in data set [2] was less than 1e-05 s⁻¹. The “self-cleavage kobs at 2500 uM GlcN6P” value in data set [3] was less than 1e-05 s⁻¹. In addition, the “self-cleavage kobs at 10000 uM GlcN6P” value in data set [4] is less than 1e-05 s⁻¹.

Turning to AUAAAAGCGCCAGAACUACAGAAAUGUAGUUGACGCGGAGGAGGUUUAUAGAAUUUUCGGCGGAUGCCUCCAAA, the “self-cleavage kobs at 640 uM GlcN6P” value in data set [1] is less than 1e-05 s⁻¹. Also, in data set [4], the “self-cleavage kobs at 10000 uM GlcN6P” value was less than 1e-05 s⁻¹.

With AUAAAAGCGCCAGAACUACAGAAAUGUAGUUGACCAGGAGGAGGUUUAUCGAAUUUUCGGCGGACACCUCCAAA, the “self-cleavage kobs at 640 uM GlcN6P” value in data set [1] is less than 1e-05 s⁻¹. In addition, in data set [2], the “self-cleavage kobs at 160 uM GlcN6P” value was less than 1e-05 s⁻¹. In data set [3], the “self-cleavage kobs at 2500 uM GlcN6P” value was less than 1e-05 s⁻¹.

With AUAAAAGCGCCAGAACUACAGAAAUGUAGUUGAUGAGGUGGAGGUUUAUCGAAUUUUAGGCGGAUGCCUCCAAA, the “self-cleavage kobs at 640 uM GlcN6P” value in data set [1] was less than 1e-05 s⁻¹.

Regarding AUAAAAGCGCCAGAACUACAGAAAUGUAGUUGUAGAGGAGUAGGUUUAUCGAAUUUUCGGCGGAUGCCUCCAAA, in data set [1], the “self-cleavage kobs at 640 uM GlcN6P” value was less than 1e-05 s⁻¹. Moreover, in data set [2], the “self-cleavage kobs at 160 uM GlcN6P” value is less than 1e-05 s⁻¹.
